# Laboratory results from PubChem BioAssay AID1479 (National Center for Advancing Translational Sciences (NCATS), 2009).
# About 820 (0.29%) of roughly 280,000 compounds were called active. Inconclusive means that the source gave no clear call. Such entries were picked first, then a sample of the others. The call rests on the fitted dose curve; in most records, active means well fitted curve in either direction with a large enough effect; inconclusive means small, poorly fitted or top-dose-only effect; inactive means flat fitted curve, though single readings scatter. Potencies of inconclusive entries are left out as doubtful fits.
# Assay: Total Fluorescence Counterscreen for Inhibitors of the Interaction of Thyroid Hormone Receptor and Steroid Receptor Coregulator 2
# Conditions: TRb/SRC2 Texas Red total fluorescence interference; series mostly up to 106 µM
# Procedure, shortened: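 Human TRb ligand-binding domain at 0.6 uM with 20 nM Texas Red SRC2 peptide in Tris buffer containing 1 uM T3 and 5% DMSO, incubated with compound 5 h at ambient temperature. Total fluorescence (555/632 nm) calculated as parallel + 2 × perpendicular.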
# Potency means the concentration at half of the fitted maximal effect; tags describe the fitted curve by direction and shape or compound fluorescence and quenching.
row,Structure (SMILES),Potency
1,CCOc1c(Cl)cc(Cl)cc1CNCCSc1nnnn1C,active: 8.91 µM [quencher]
2,Cc1ccc(C(=O)CC2(O)C(=O)N(CCc3ccccc3)c3ccc(Cl)cc32)cc1 (configuration not stated),inactive
3,NC(=O)c1cccc2ccccc12,inactive
4,Cc1ccc(/C=C/c2onc(C)c2S(=O)(=O)N2CCC(C(=O)NCc3ccc(C)o3)CC2)cc1,"inconclusive [falling, full curve, poor fit]"
5,COc1cccc(CNC(=O)Cc2ccc(NC(=O)N3CCCCc4ccccc43)cc2)c1OC,"inconclusive [falling, partial curve, poor fit]"
6,O=C1C2=CC[C@H]3C(=O)N(Cc4ccccc4)C(=O)[C@@H]3[C@@H]2[C@H](O)[C@@H]2O[C@H]12,"inconclusive [falling, partial curve, poor fit]"
7,COc1ccc(OC)c2c(=S)c3ccccc3[nH]c12,"inconclusive [falling, partial curve, poor fit]"
8,Cc1cccc(-n2c3nc(=O)[nH]c(=O)c-3cc3c(Cl)cccc32)c1C,"inconclusive [falling, partial curve, poor fit]"
9,CC(=O)N1CCc2c(sc3c2c(=O)n(-c2ccccc2)c(=O)n3CC(=O)Nc2ccccc2C)C1,"inconclusive [quencher, full curve]"
10,Cc1ccccc1S(=O)(=O)Cc1ccc(C(=O)NC2CCCCC2)o1,"inconclusive [falling, full curve, poor fit]"
11,CCOc1ccc(NS(=O)(=O)c2ccc3[nH]cc(C(=O)N(C)Cc4ccccc4)c(=O)c3c2)cc1,"inconclusive [falling, partial curve, poor fit]"
12,COc1ccc2c(c1)[nH]c1c(N3CCN(Cc4ccc5c(c4)OCO5)CC3)ncnc12,"inconclusive [falling, single point]"
13,Cc1c([N+](=O)[O-])c([N+](=O)[O-])nn1CC(=O)NCCc1ccccc1,"inconclusive [quencher, full curve]"
14,COc1cc(OC)cc(C(=O)NCc2ccc3c(c2)cc(C)n3C)c1,"inconclusive [fluorescent, partial curve]"
15,NCCCCCCNS(=O)(=O)c1cccc2c(Cl)cccc12,"inconclusive [falling, full curve, poor fit]"
16,COc1ccccc1/C=C/C(=O)NCC(=O)N/N=C/c1ccccc1[N+](=O)[O-],inactive
17,Cc1ccc2oc(C(=O)Nc3c(C(=O)c4ccc(C)c(F)c4)oc4ccccc34)cc(=O)c2c1,"inconclusive [quencher, partial curve]"
